According to the supplement of paper PMC4604168 (melanoma cell lines):
The list shows a part of the results. Most values come without repeats; read them as rough.

What was measured:
Experiment in all cases: cell count relative to DMSO control; melanoma cells; higher = more viable cells
Conditions in all cases: library dose: standard library concentration; 72 h
G361 = system: G361
IPC-298 = system: IPC-298
IST-MEL1 = system: IST-MEL1
LB2518-MEL = system: LB2518-MEL
LOXIMVI = system: LOXIMVI
MEL-HO = system: MEL-HO
MZ2-MEL = system: MZ2-MEL
MeWo = system: MeWo
RPMI7951 = system: RPMI7951
RVH-421 = system: RVH-421
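Note: cells treated in 1,536-well plates, then fixed and DAPI-stained, with nuclei counted from automated high-throughput microscope images.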

| SMILES | cell count (G361) [%] | cell count (IPC-298) [%] | cell count (IST-MEL1) [%] | cell count (LB2518-MEL) [%] | cell count (LOXIMVI) [%] | cell count (MEL-HO) [%] | cell count (MZ2-MEL) [%] | cell count (MeWo) [%] | cell count (RPMI7951) [%] | cell count (RVH-421) [%] |
| --- | --- | --- | --- | --- | --- | --- | --- | --- | --- | --- |
| CS(=O)(=O)c1ccc(C(=O)Nc2ccc(Cl)c(-c3ccccn3)c2)c(Cl)c1 [vismodegib] + CC(=O)O[C@@]12CO[C@@H]1C[C@H](O)[C@@]1(C)C(=O)[C@H](O)C3=C(C)[C@@H](OC(=O)[C@H](O)[C@@H](NC(=O)OC(C)(C)C)c4ccccc4)C[C@@](O)([C@@H](OC(=O)c4ccccc4)[C@H]21)C3(C)C [Docetaxel] (first compound 5 µM, partner dose 0.0005 µM) | 11.2 | 30.1 | 32.2 | 23.8 | 46.9 | 35.9 | 39.7 | 24.2 | 25.4 | 63 |
| CN(c1ncccc1CNc1nc(Nc2ccc3c(c2)CC(=O)N3)ncc1C(F)(F)F)S(C)(=O)=O + CS(=O)(=O)CCNCc1ccc(-c2ccc3ncnc(Nc4ccc(OCc5cccc(F)c5)c(Cl)c4)c3c2)o1 [lapatinib] (first compound 0.4 µM, partner dose 4 µM) | 48.2 | 89.3 | 79.3 | 93.7 | 120 | 73.9 | 49.5 | 70.3 | 57.5 | 86.3 |
| NC1(c2ccc(-c3nc4ccn5c(=O)[nH]nc5c4cc3-c3ccccc3)cc2)CCC1 + C[C@@H](Oc1cc(-c2cnn(C3CCNCC3)c2)cnc1N)c1c(Cl)ccc(F)c1Cl [Crizotinib] (first compound 2 µM, partner dose 1 µM) | 70.4 | 87.3 | 79.2 | 70.8 | 127 | 68.4 | 94.2 | 65.7 | 70.7 | 165 |
| CS(=O)(=O)c1ccc(C(=O)Nc2ccc(Cl)c(-c3ccccn3)c2)c(Cl)c1 [vismodegib] + CCCS(=O)(=O)Nc1ccc(F)c(C(=O)c2c[nH]c3ncc(Cl)cc23)c1F [PLX4720] (first compound 5 µM, partner dose 0.4 µM) | 66.4 | 63.6 | 90.3 | – | 73.1 | 88.8 | – | 113 | 108 | 83.9 |
| C=C(c1ccc(C(=O)O)cc1)c1cc2c(cc1C)C(C)(C)CCC2(C)C [Bexarotene] + N#Cc1c(O)c2c(-c3ccc(-c4ccccc4O)cc3)csc2[nH]c1=O [A769662] (first compound 10 µM, partner dose 10 µM) | 81.3 | 77.8 | 87.3 | 98.6 | 127 | 79.5 | 82.1 | 75.6 | 69.8 | 94.8 |
| CS(=O)(=O)c1ccc(C(=O)Nc2ccc(Cl)c(-c3ccccn3)c2)c(Cl)c1 [vismodegib] + Cc1ccc(NC(=O)c2cccc(N(C)C)c2)cc1NC(=O)c1ccc(O)cc1 [ZM336372] (first compound 5 µM, partner dose 10 µM) | 121 | 114 | 107 | 115 | 136 | 109 | 129 | 92.2 | 111 | 112 |
| C=C(c1ccc(C(=O)O)cc1)c1cc2c(cc1C)C(C)(C)CCC2(C)C [Bexarotene] + C[C@@H]1CCN(C(=O)CC#N)C[C@@H]1N(C)c1ncnc2[nH]ccc12 [CP690550] (first compound 10 µM, partner dose 5 µM) | 85.2 | 89 | 81.6 | – | 83.7 | 86 | – | 81.1 | 59.8 | 96.3 |
| CCCS(=O)(=O)Nc1ccc(F)c(C(=O)c2c[nH]c3ncc(Cl)cc23)c1F + OCCn1cc(-c2cnc3nnn(Cc4ccc5ncccc5c4)c3n2)cn1 [PF04217903] (first compound 0.4 µM, partner dose 5 µM) | 57.3 | 80.8 | 103 | 104 | 85.5 | 72.4 | 77.4 | 87.8 | 73.9 | 75.1 |
| CN(c1ncccc1CNc1nc(Nc2ccc3c(c2)CC(=O)N3)ncc1C(F)(F)F)S(C)(=O)=O + O=C(Nc1ccccc1)c1cc([N+](=O)[O-])ccc1Cl [GW9662] (first compound 0.4 µM, partner dose 10 µM) | 84.8 | 119 | 107 | 79.8 | 72.5 | 89.7 | 92.2 | 83.5 | 66.6 | 63.4 |
| CS(=O)(=O)c1ccc(C(=O)Nc2ccc(Cl)c(-c3ccccn3)c2)c(Cl)c1 [vismodegib] + C[C@@H]1CCN(C(=O)CC#N)C[C@@H]1N(C)c1ncnc2[nH]ccc12 [CP690550] (first compound 5 µM, partner dose 5 µM) | 94.2 | 104 | 103 | 105 | 95.6 | 98.6 | 126 | 87.3 | 88.9 | 93.2 |
| C=C(c1ccc(C(=O)O)cc1)c1cc2c(cc1C)C(C)(C)CCC2(C)C [Bexarotene] + Nc1ncn([C@H]2C[C@H](O)[C@@H](CO)O2)c(=O)n1 [decitabine] (first compound 10 µM, partner dose 0.5 µM) | 63 | 59.5 | 74.4 | – | 84.8 | 59.3 | – | 64.5 | 48.9 | 71.8 |
| NC1(c2ccc(-c3nc4ccn5c(=O)[nH]nc5c4cc3-c3ccccc3)cc2)CCC1 + Nc1nc(F)nc2c1ncn2[C@@H]1O[C@H](CO)[C@@H](O)[C@@H]1O [fludarabine] (first compound 2 µM, partner dose 1 µM) | 75.4 | 62.3 | 68.3 | – | 67 | 61.2 | – | 76.7 | 60.3 | 95.7 |
| CCCS(=O)(=O)Nc1ccc(F)c(C(=O)c2c[nH]c3ncc(Cl)cc23)c1F + OCc1c[nH]c2ccccc12 [Indole-3-carbinol] (first compound 0.4 µM, partner dose 4 µM) | 68.3 | 66.6 | 94.1 | – | 75.8 | 79.9 | – | 94.9 | 148 | 98.5 |
| CCCS(=O)(=O)Nc1ccc(F)c(C(=O)c2c[nH]c3ncc(Cl)cc23)c1F + O=C(CCCCCCC(=O)Nc1ccccc1)NO [vorinostat] (first compound 0.4 µM, partner dose 0.4 µM) | 63.8 | 83.6 | 82.1 | 93.6 | 98.7 | 86.1 | 75.9 | 85.2 | 79.7 | 86.6 |
| CCCS(=O)(=O)Nc1ccc(F)c(C(=O)c2c[nH]c3ncc(Cl)cc23)c1F + Cc1cc(N2CCOCC2)cc2[nH]c(-c3c(NC[C@@H](O)c4cccc(Cl)c4)cc[nH]c3=O)nc12 [BMS536924] (first compound 0.4 µM, partner dose 1 µM) | 53.6 | 84.1 | 90 | – | 70.5 | 87.4 | – | 71.8 | 75.6 | 69.6 |
| CCCS(=O)(=O)Nc1ccc(F)c(C(=O)c2c[nH]c3ncc(Cl)cc23)c1F + O=c1cc(-c2cccc3c2Sc2ccccc2S3)oc(N2CCOCC2)c1 [KU55933] (first compound 0.4 µM, partner dose 5 µM) | 63 | 91.6 | 80.5 | 75.9 | 98.9 | 83.8 | 103 | 84 | 88.1 | 75.3 |
